# Laboratory results from the supplement of paper PMC3724861.
# The other results are listed elsewhere or left out.
# Tested on: T1, Caupolican (Caup) homeodomain DNA-binding domain
# T1 sequence: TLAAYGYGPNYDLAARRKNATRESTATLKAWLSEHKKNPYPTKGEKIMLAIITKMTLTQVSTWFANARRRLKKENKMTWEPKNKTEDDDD
# Assay: PBM E-score (8-mer, recovered from the published 9-mer minima) (E-score (dimensionless, -0.5 to 0.5)); Drosophila protein; higher = stronger relative binding preference, active = 0.31 or more
# In short: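 Caup's homeodomain DNA-binding domain (residues 214-303) was produced by in vitro transcription and translation and applied at 100 nM to custom-designed protein binding microarrays. Each value is an enrichment score giving relative binding preference for a short DNA word; higher means stronger. Published 9-mer scores were the minimum of their two constituent 8-mer scores, and the 8-mer values were recovered from those minima. A cutoff of 0.31 marks candidate binding sequences.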
row,Sequence,PBM E-score
1,AAGTTCGT,inactive: -0.0542
2,ATGATTCA,inactive: 0.0987
3,CCGTCATC,inactive: -0.116
4,TCCGAAAA,inactive: -0.0323
5,ACTCTCGG,inactive: -0.12
6,ACACCTCA,inactive: 0.12
7,ACCGGCTC,inactive: -0.124
8,GACGCACA,inactive: -0.0232
9,ATAACTAG,inactive: 0.113
10,ACCCTGAG,inactive: -0.0656
11,CTATGATC,inactive: -0.00506
12,GTTCAAAA,inactive: 0.0221
13,CCAGGTTA,inactive: 0.0134
14,CAAAGACC,inactive: -0.0627
15,GATGGACA,inactive: 0.118
16,CACCCATA,inactive: -0.00061
17,GAATCGGC,inactive: -0.118
18,GTGAGAGA,inactive: -0.112
19,ACGTGACC,inactive: -0.0373
20,AGGCACAC,inactive: -0.0626
21,GATAAGCA,≥ 0.12
22,ACGCAGCA,inactive: -0.06
23,AGGGGTGC,inactive: -0.128

row,Sequence,PBM E-score
1,CATCTGAG,inactive: 0.0302
2,CACTATCG,inactive: -0.0391
3,TGATGGCA,inactive: -0.0308
4,ATGATTGC,inactive: 0.137
5,AGCTTCGG,inactive: -0.0646
6,CGATACTA,inactive: 0.129
7,CTTCCGGC,inactive: -0.179
8,CCTCGAGG,inactive: -0.116
9,CACTGGCC,inactive: -0.105
10,CTCCGCAA,inactive: -0.114
11,CCATTAAA,inactive: 0.0215
12,CGTTTATA,inactive: 0.00368
13,AGAAGATA,≥ 0.105
14,TCTGTGCA,inactive: 0.0826
15,TACCAACA,inactive: 0.243
16,TGGAGAAA,inactive: -0.145
17,GCCTGACA,inactive: 0.0595
18,CTATCTAC,inactive: 0.196
19,AGTAAGTC,inactive: 0.035
20,CCAATCTA,inactive: -0.0392
21,AATCCCGC,inactive: -0.127
22,ACGCCACA,≥ -0.00325
23,ACCTCCCT,inactive: -0.195

row,Sequence,PBM E-score
1,CTTCCCTC,inactive: -0.163
2,CTGTAAAC,inactive: 0.18
3,CGTATACC,inactive: -0.0469
4,TAGAGGGA,inactive: -0.06
5,CAACCTCG,inactive: 0.0146
6,CGAATACG,inactive: 0.033
7,ACCGGAGC,inactive: -0.218
8,CGGCATCC,inactive: -0.0197
9,AAGCAGGT,inactive: -0.0901
10,GATTCGCC,inactive: -0.0863
11,CAGTTTCC,inactive: -0.137
12,GATCGTAC,inactive: 0.0539
13,AAGGTCCG,inactive: -0.161
14,CGCCAGTA,inactive: -0.115
15,GGAGGGTA,inactive: -0.0611
16,CCCTACAA,inactive: 0.221
17,ACCACCTC,inactive: -0.0283
18,TGGCCAAA,inactive: -0.0452
19,AAAACGCG,inactive: -0.0503
20,GGCAAAAA,inactive: -0.0489
21,AGTCGTCA,inactive: 0.0397
22,CTAGCTTC,inactive: -0.115
23,AACATTTG,inactive: 0.169

row,Sequence,PBM E-score
1,ACATCTCT,inactive: 0.211
2,ATACGCCA,≥ 0.0087
3,AAGGAATA,inactive: 0.1
4,CGGCGGGA,inactive: -0.305
5,CACGCCCA,inactive: -0.0669
6,AGAGGAGG,inactive: -0.228
7,CCCACATC,inactive: -0.119
8,CAACCGTG,inactive: 0.0309
9,ACGAGTAC,≥ 0.205
10,GAGGTGAA,inactive: -0.0724
11,TCGTATAA,inactive: 0.121
12,CCAAAGAG,inactive: -0.0529
13,AATTTTGG,inactive: 0.0161
14,AAATAACC,inactive: 0.0615
15,GGCCGAAC,inactive: -0.204
16,CCCTCCGG,inactive: -0.29
17,GCTTCAAC,inactive: -0.0387
18,CGTCGAAA,inactive: -0.0215
19,GCATGTCA,active: 0.44
20,ACCGAGAC,inactive: -0.0205
21,AGTTATAC,inactive: 0.0957
22,CTCGTCAA,inactive: 0.0256
23,CTGTCCCA,inactive: 0.0609

row,Sequence,PBM E-score
1,GAGCCGCC,inactive: -0.275
2,GTTCGCGA,inactive: 0.066
3,ACTAAGAC,inactive: 0.104
4,AGATTACA,inactive: 0.259
5,GCTAAACC,inactive: -0.148
6,GAATCGTA,inactive: 0.113
7,AGCTTTAA,inactive: 0.0355
8,GAGAGCAA,inactive: -0.0503
9,GGTCAACC,inactive: -0.125
10,CCTCAGCC,inactive: -0.194
11,ATTGGACC,inactive: -0.036
12,ATCAAGAG,inactive: 0.0898
13,ATTTGTCC,≥ 0.218
14,GCTGGCAC,inactive: -0.13
15,CAGCACCC,inactive: -0.145
16,ATGGAATC,inactive: 0.0733
17,ACGTGCGA,inactive: -0.053
18,CTCACCAA,inactive: 0.0427
19,CTCATGGC,inactive: -0.156
20,TAGCTATA,inactive: 0.0605
